In PubChem BioAssay AID624173 (National Center for Advancing Translational Sciences (NCATS), 2012):
Screen size: about 410,000 compounds; about 490 (0.12%) were called active. This list was built around the results that the source calls inconclusive (neither active nor inactive); the mix of calls is not that of the screen. Calls come from the whole dose curve; as a rule, active = well fitted inhibition curve with a large enough effect; inconclusive = small, poorly fitted or top-dose-only effect; inactive = flat fitted curve, though single readings scatter. A potency beside an inconclusive call is a rough fit, not a confirmed value.

These molecules were tested against pyruvate kinase (Trypanosoma brucei) (UniProt Q57TT1) (assay: qHTS of Trypanosoma Brucei Inhibitors). Settings: TbPYK enzyme, Kinase-Glo Plus ATP luminescence, 45 min; series mostly up to 76.8 µM.
In short: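 TbPYK + substrate in 50 mM TEA pH 7.2, 100 mM KCl, 10 mM MgCl2, 0.05% BSA, 0.01% Tween-20; cpd pinned; ADP 130 uM final; 45 min RT; Kinase-Glo Plus 10 min; luminescence endpoint.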
Note: nearly all actives have a fitted effect of over 50% in size.
Potency is the fitted concentration of half-maximal effect; tags give direction and shape of the fitted curve.

| Structure (SMILES) | Potency |
| --- | --- |
| COc1ccc(OC)c(N=c2ssnc2Cl)c1 | active: 28.2 µM |
| CCN(CC)c1ccc(C=C2C(=O)NC(=S)NC2=O)cc1 | inconclusive: 22.4 µM [inhibitor, partial curve, poor fit] |
| Cc1ccccc1N1C(=O)CC(Sc2nnc(-c3ccccc3)o2)C1=O (configuration not stated) | inconclusive: 14.1 µM [inhibitor, partial curve] |
| O=C(Nc1ccc(Cl)cc1Cl)c1cccc(N2C(=O)C=CC2=O)c1 | inconclusive: 15.8 µM [inhibitor, partial curve] |
| O=C(Nc1ccccc1)N1CCOCC1 | inactive |
| CN(C)c1ccc(C(=S)N2CCCCCC2)cc1 | inconclusive: 39.8 µM [inhibitor, single point] |
| COc1cc(NC(=O)CSc2ccc(-c3ccco3)nn2)cc(OC)c1 | inconclusive: 28.2 µM [inhibitor, single point] |
| COc1ccccc1CNc1ncccn1 | inactive |
| O=C(CCN1C(=O)c2ccccc2S1(=O)=O)NCc1ccccc1Cl | inactive |
| CCSc1n[nH]c(=S)s1 | inconclusive: 31.6 µM [inhibitor, partial curve] |
| COC(=O)c1ccc(CSc2nc3ccccc3c(=O)n2C)o1 | inactive |
| COc1ccc(NC(=O)Cn2c(=O)n(Cc3ccco3)c(=O)c3sc4ccccc4c32)cc1Cl | inactive |
| COc1ccc2c(c1)c1c(c(=O)n(-c3cc(Cl)ccc3C)c(=O)n1Cc1ccc(F)cc1)n2C | inactive |
| COc1ccc(C2=NOC(Cn3nc(C(=O)O)cc3-c3ccccc3)C2)cc1 (configuration not stated) | inconclusive: 5.01 µM [inhibitor, partial curve, poor fit] |
| Cc1cc(-c2n[nH]c(=S)n2/N=C/c2ccc(Br)s2)n[nH]1 | active: 1.12 µM |
| COc1ccc(C(=O)NCC(=O)c2ccccc2)cc1 | inactive |
| CCOC(=O)C1=C(CSc2nc(CC)c(C)cc2C#N)OC(N)=C(C#N)C1c1ccccc1 (configuration not stated) | inconclusive: 28.2 µM [inhibitor, single point] |
| Oc1c(C(c2ccccc2)N2CCc3ccccc3C2)sc2ncnn12 (configuration not stated) | inconclusive: 31.6 µM [inhibitor, single point] |
| COc1ccc(N2C(=O)[C@H]3[C@@H](C2=O)C2c4ccccc4C=NN2[C@H]3C(=O)C(C)(C)C)cc1 (some centres not stated) | inactive |
| Cc1cccc(Nc2c([N+](=O)[O-])c(=O)n(C)c3ccccc23)c1 | inconclusive: 39.8 µM [inhibitor, single point] |
| C=CCc1c(C)nc(SC)nc1Nc1ccc(C(C)=O)cc1 | inconclusive: 31.6 µM [inhibitor, single point] |
| Clc1cccc(Cc2c(-c3ccco3)nc3ccc(Br)cn23)c1 | inconclusive: 17.8 µM [inhibitor, partial curve, poor fit] |
| Cc1nc(S/C(=C/c2ccc(OCc3ccc(C(=O)O)cc3)cc2)C(=O)O)n[nH]1 | inconclusive: 35.5 µM [inhibitor, single point] |
| Cc1ccsc1/C=N/n1c(-c2ccncc2)n[nH]c1=S | inconclusive: 2.51 µM [inhibitor, full curve, poor fit] |

| Structure (SMILES) | Potency |
| --- | --- |
| S=c1[nH]nc(C2CCCCC2)n1/N=C/c1ccco1 | inconclusive: 17.8 µM [inhibitor, partial curve, poor fit] |
| C=C1C(=O)OC2C1CCC(C)C1C=CC(=O)C12C (configuration not stated) | inactive |
| COc1cc(NC(=O)c2cc(-c3cccc(OC)c3)n[nH]2)cc(OC)c1 | inactive |
| C/C(=N\O)C(=O)C(CN1CCCCC1)CN1CCCCC1 | inconclusive: 0.794 µM [inhibitor, full curve, poor fit] |
| C=C1C(=O)OC2CC(C)C3C=CC(=O)C3(C)C(O)C12 (configuration not stated) | inactive |
| c1ccc(-c2nc(-c3ccco3)cs2)nc1 | inconclusive: 35.5 µM [inhibitor, partial curve, poor fit] |
| CCOC(=O)N1CCc2c(sc(N)c2C#N)C1 | inconclusive: 35.5 µM [inhibitor, partial curve, poor fit] |
| CCCCOc1ccc(Br)cc1/C(C)=N/NC1=NCCN1 | inactive |
| O=C(NCCSc1ccccc1)c1ccc(CN2CCOCC2)cc1 | inactive |
| O=C(/C=C/Nc1ccccc1)c1ccc(Oc2ncccn2)cc1 | inactive |
| O=S(=O)(Nc1cc(Sc2cccc3cccnc23)c(O)c2ccccc12)c1ccc(F)cc1 | inconclusive: 28.2 µM [inhibitor, partial curve, poor fit] |
| CCCCCn1c(=O)c2ccccc2n2c(=S)[nH]nc12 | inconclusive: 17.8 µM [inhibitor, partial curve, poor fit] |
| CCOC(=O)c1c(C)oc2ncnc(Nc3cc(C)cc(C)c3)c12 | inactive |
| Cc1ccc(C2CC2c2n[nH]c(=S)n2-c2cccc(Cl)c2)cc1 (configuration not stated) | inconclusive: 31.6 µM [inhibitor, partial curve, poor fit] |
| C=CCn1c(-c2cccc(S(=O)(=O)N(CC)CC)c2)n[nH]c1=S | inconclusive: 7.94 µM [inhibitor, partial curve] |
| CCOC(=O)c1ccccc1NC(=O)c1ccccc1SC | inconclusive: 50.1 µM [inhibitor, single point] |
| CCc1ccccc1-n1c(SCC(=O)c2c(N)n(C3CC3)c(=O)[nH]c2=O)nnc1N1CCOCC1 | inconclusive: 44.7 µM [inhibitor, single point] |
| O=C(CCNC(=O)c1ccc(Br)cc1)Nc1nc2ccccc2[nH]1 | inactive |
| CCCCOc1ccc(/C=C/C(=O)OCC(=O)NC(=O)NCC(C)C)cc1OCC | inconclusive: 17.8 µM [inhibitor, partial curve] |
| Oc1cc2c(cc1O)C(c1ccccc1)CNCC2 (configuration not stated) | inconclusive: 35.5 µM [inhibitor, single point] |
| Cn1c(-c2ccc(C(C)(C)C)cc2)n[nH]c1=S | inconclusive: 3.55 µM [inhibitor, full curve] |
| COc1ccccc1Nc1ccc2c(O)cc(S(=O)(=O)O)cc2c1 | inconclusive: 12.6 µM [inhibitor, partial curve, poor fit] |
| COc1ccc(-n2c(=S)[nH]c3[nH]ncc3c2=O)cc1 | inconclusive: 14.1 µM [inhibitor, partial curve] |
